Experimental data as given in the supplement of paper PMC10126150.
Sequences with one replicate were seen in a single cluster, so their values are uncertain.

Test system: ATP
Test: switch fluorescence ratio, 500 uM ATP over buffer (Cy3 cluster intensity, sum of 5 cycles each) (fold (ratio)); higher = stronger signal-on switching upon ATP binding; sequences stand for … in TCGTCGGCAGCGTCAGATGTGTATAAGAGACAGTTTTTTTTTTTTTTTTTTTTTTTTT…TC
Details: aptamer strand: ATP DNA aptamer (quencher-CACCTGGGGGAGTATTGCGGAGGAAGG + anchor), 100 nM annealed; ATP concentration: 500 uM; one replicate
In short: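 Clusters carrying Cy3-labelled switching strands on a modified Illumina MiSeq flow-cell were annealed to 100 nM quencher-labelled ATP aptamer and imaged in selection buffer. They were imaged again after 15 min with 500 uM ATP at 22 °C, over five buffer/ATP cycles with NaOH stripping and re-annealing in between. For each cluster, the fluorescence ratio is the summed Cy3 intensity of the target cycles divided by that of the buffer cycles, averaged per switch-domain sequence. Clusters outside 100-1000 RFU were left out.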
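Note: ATP exposure 15 min at 22 °C before imaging.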

Sequence: ATGTTAGCGG
- switch fluorescence ratio: 1.03

Sequence: GGCTGAAGTC
- switch fluorescence ratio: 0.957

Sequence: CAATTGCGG
- switch fluorescence ratio: 0.935

Sequence: TAGAACTCCG
- switch fluorescence ratio: 1.06

Sequence: TCAAATGGG
- switch fluorescence ratio: 0.918

Sequence: CCATGGTGGA
- switch fluorescence ratio: 1.03

Sequence: TTGCCATAGG
- switch fluorescence ratio: 1.02

Sequence: TATCGCCCAA
- switch fluorescence ratio: 1.02

Sequence: ATAAAGGGT
- switch fluorescence ratio: 0.974

Sequence: AATCTTTGGG
- switch fluorescence ratio: 1.02

Sequence: GCGTGGCTGA
- switch fluorescence ratio: 1.03

Sequence: CCCGAGCGGG
- switch fluorescence ratio: 0.983

Sequence: AGTGAAATTA
- switch fluorescence ratio: 1.01

Sequence: AATAGAGCCT
- switch fluorescence ratio: 1.06

Sequence: GCAGGAATAG
- switch fluorescence ratio: 2.06

Sequence: CTTTCGGAGT
- switch fluorescence ratio: 1.05

Sequence: ACTGTGATCG
- switch fluorescence ratio: 0.986

Sequence: TTGGAGTAGG
- switch fluorescence ratio: 0.998

Sequence: CGAGCAATCG
- switch fluorescence ratio: 3.55

Sequence: CACGGGGTTC
- switch fluorescence ratio: 1.03

Sequence: TTTTATCAGC
- switch fluorescence ratio: 1.05

Sequence: ACATTTGAGG
- switch fluorescence ratio: 0.994

Sequence: CATATGACGA
- switch fluorescence ratio: 1

Sequence: ATACAGCCCA
- switch fluorescence ratio: 1.05

Sequence: GGATTGGACC
- switch fluorescence ratio: 1.03

Sequence: TCACTAATAA
- switch fluorescence ratio: 1.02

Sequence: TGCCTATAAG
- switch fluorescence ratio: 0.995

Sequence: GCCTCTGGCG
- switch fluorescence ratio: 1

Sequence: CGAATATCCG
- switch fluorescence ratio: 0.98

Sequence: CAAGTTATAG
- switch fluorescence ratio: 1.02

Sequence: TTCAAGCTTC
- switch fluorescence ratio: 1.04

Sequence: TAGGATCTCG
- switch fluorescence ratio: 1

Sequence: GTTACTTAG
- switch fluorescence ratio: 1.08

Sequence: CGTTCCTTCC
- switch fluorescence ratio: 2.98

Sequence: TGGGTAGG
- switch fluorescence ratio: 1.04

Sequence: TAACCTTACA
- switch fluorescence ratio: 1.42

Sequence: ATTTCACTTG
- switch fluorescence ratio: 1.03

Sequence: TATCGAGAGC
- switch fluorescence ratio: 0.967

Sequence: TACGGGGCTT
- switch fluorescence ratio: 4.13

Sequence: TGAGAAAAAC
- switch fluorescence ratio: 1.06

Sequence: ACTTTGGATT
- switch fluorescence ratio: 0.992

Sequence: TTAGACACAC
- switch fluorescence ratio: 1.42

Sequence: TAAAGACTGG
- switch fluorescence ratio: 1.03

Sequence: ACGGGCGGTT
- switch fluorescence ratio: 0.977

Sequence: GCAAATTAGG
- switch fluorescence ratio: 1.04

Sequence: ACGTCGGTC
- switch fluorescence ratio: 1.01

Sequence: CAGTAAGCTT
- switch fluorescence ratio: 1.01

Sequence: TAATTTCGGC
- switch fluorescence ratio: 1.04

Sequence: CAACTATCGT
- switch fluorescence ratio: 1.04

Sequence: TAGTGAGTTA
- switch fluorescence ratio: 0.992

Sequence: CATAAGTTGG
- switch fluorescence ratio: 0.979

Sequence: GATTATAAAG
- switch fluorescence ratio: 1.04

Sequence: ACGCACGTTG
- switch fluorescence ratio: 1.31

Sequence: CTGTTAATC
- switch fluorescence ratio: 1.01

Sequence: TTATCGTAGT
- switch fluorescence ratio: 0.995

Sequence: AGATCACCTG
- switch fluorescence ratio: 1.14

Sequence: GAAGAGGAGT
- switch fluorescence ratio: 1

Sequence: GCCGCGTGTA
- switch fluorescence ratio: 1.05

Sequence: CCATAGCTCG
- switch fluorescence ratio: 1.05

Sequence: ATATCGGCTA
- switch fluorescence ratio: 1

Sequence: AACTGGACGT
- switch fluorescence ratio: 1.02

Sequence: GAAGTCTAA
- switch fluorescence ratio: 1.09

Sequence: TCGCTGTTGC
- switch fluorescence ratio: 1.12

Sequence: TAGGCTAAGT
- switch fluorescence ratio: 1.02

Sequence: CTGCCGAAGC
- switch fluorescence ratio: 3.01

Sequence: TTTTTGGAC
- switch fluorescence ratio: 1.08

Sequence: GGTCCTTTGG
- switch fluorescence ratio: 0.99

Sequence: GAGATGTCGT
- switch fluorescence ratio: 0.968

Sequence: AGCCTCTGTT
- switch fluorescence ratio: 0.961

Sequence: AATGGACAA
- switch fluorescence ratio: 1

Sequence: ATGGCAAGAT
- switch fluorescence ratio: 1.1

Sequence: GATCATATGT
- switch fluorescence ratio: 1

Sequence: CTAATGTAAC
- switch fluorescence ratio: 1.01

Sequence: ACGTGTCTCA
- switch fluorescence ratio: 0.954

Sequence: CGGAAATGC
- switch fluorescence ratio: 2.3

Sequence: GAAGGTCCAT
- switch fluorescence ratio: 1.01

Sequence: GTGGGCAGTC
- switch fluorescence ratio: 1.09

Sequence: CTCAAGGTTG
- switch fluorescence ratio: 0.998

Sequence: TACGTAGGGA
- switch fluorescence ratio: 1.06

Sequence: GTTCAAGGTT
- switch fluorescence ratio: 1.01

Sequence: ACGGAAAAGC
- switch fluorescence ratio: 1.14

Sequence: CGAAAATTGT
- switch fluorescence ratio: 1.02

Sequence: ACAAAACGGT
- switch fluorescence ratio: 1.06

Sequence: GTGCAATTGG
- switch fluorescence ratio: 1.09

Sequence: TTTGGCGTTA
- switch fluorescence ratio: 0.996

Sequence: CAACGTATCT
- switch fluorescence ratio: 1.13

Sequence: ACCCTCCCGG
- switch fluorescence ratio: 2.57

Sequence: GTCCTCCAGC
- switch fluorescence ratio: 3.63

Sequence: TCCTTAAGCC
- switch fluorescence ratio: 1.7

Sequence: TTACTACACT
- switch fluorescence ratio: 1.35

Sequence: ACTGGGCTCT
- switch fluorescence ratio: 0.947

Sequence: GAGCAGGGGA
- switch fluorescence ratio: 1.05

Sequence: CAGAACAAAT
- switch fluorescence ratio: 1.05

Sequence: GTGTCCAGTG
- switch fluorescence ratio: 1.1

Sequence: ACAGTTGGTC
- switch fluorescence ratio: 1.02

Sequence: GAGAATAGTG
- switch fluorescence ratio: 0.99

Sequence: AAACAGGAT
- switch fluorescence ratio: 0.958

Sequence: CTTAACTGAA
- switch fluorescence ratio: 0.987

Sequence: TCGAAAAAAG
- switch fluorescence ratio: 1.04

Sequence: TGCGAGGTGT
- switch fluorescence ratio: 1.01

Sequence: TTCTTTTGAT
- switch fluorescence ratio: 0.958

Sequence: GAATCAGACT
- switch fluorescence ratio: 0.97

Sequence: AGCATATATT
- switch fluorescence ratio: 1.12

Sequence: TCCTAGTGCT
- switch fluorescence ratio: 1.01

Sequence: TGAGTAGGCG
- switch fluorescence ratio: 1.09

Sequence: CACAATGGA
- switch fluorescence ratio: 1.04

Sequence: GGCGACCGAC
- switch fluorescence ratio: 1.24

Sequence: CGCTTTGGCA
- switch fluorescence ratio: 1.02

Sequence: TCACGGGCCT
- switch fluorescence ratio: 0.999

Sequence: TACACCGGGC
- switch fluorescence ratio: 1.09

Sequence: AACGTTTATC
- switch fluorescence ratio: 1.01

Sequence: AGAAGGGTCT
- switch fluorescence ratio: 0.997

Sequence: ATGGGAGGTA
- switch fluorescence ratio: 1.01

Sequence: AATCCTTAGA
- switch fluorescence ratio: 0.99

Sequence: CTGCATAGTT
- switch fluorescence ratio: 1.01

Sequence: TCACTTCGAT
- switch fluorescence ratio: 0.982

Sequence: ACCGCTACGC
- switch fluorescence ratio: 1.68

Sequence: AAGCACCTAC
- switch fluorescence ratio: 1.63

Sequence: GGCCATTACC
- switch fluorescence ratio: 1.07

Sequence: GCCATGCCAG
- switch fluorescence ratio: 1.05

Sequence: CCTCTGATTG
- switch fluorescence ratio: 1.26

Sequence: TGCCACTGAC
- switch fluorescence ratio: 1.33

Sequence: AAATTTGAGC
- switch fluorescence ratio: 0.975

Sequence: AGTGAATGTG
- switch fluorescence ratio: 0.991

Sequence: ATGTGTCGAT
- switch fluorescence ratio: 1.04

Sequence: ACCATAGTGA
- switch fluorescence ratio: 1.03

Sequence: TGTAATATAT
- switch fluorescence ratio: 1.11

Sequence: GTGCAGGGTG
- switch fluorescence ratio: 1.22

Sequence: GGTGGCTCTT
- switch fluorescence ratio: 0.986

Sequence: TGGTTCGAAA
- switch fluorescence ratio: 1

Sequence: ATGCCCAAGG
- switch fluorescence ratio: 1.18

Sequence: CTGGACCATG
- switch fluorescence ratio: 0.97

Sequence: TCGGGTGGCT
- switch fluorescence ratio: 1.02

Sequence: CATCCTGACT
- switch fluorescence ratio: 1.31

Sequence: CAAGCTTGTT
- switch fluorescence ratio: 1

Sequence: GGCCTTGCCC
- switch fluorescence ratio: 1.01

Sequence: CGAGATAATT
- switch fluorescence ratio: 0.963

Sequence: AGTTGCGTGA
- switch fluorescence ratio: 1.02

Sequence: AATGAGTCGC
- switch fluorescence ratio: 1.04

Sequence: GGGGTATTCA
- switch fluorescence ratio: 1.01

Sequence: TATGCCGATT
- switch fluorescence ratio: 0.995

Sequence: GTGGTTGTGT
- switch fluorescence ratio: 0.983

Sequence: AAATAAGGAC
- switch fluorescence ratio: 0.994

Sequence: TTCTTGCCAG
- switch fluorescence ratio: 1.02

Sequence: TAGACGTGA
- switch fluorescence ratio: 1.03

Sequence: TTCAGTGTTC
- switch fluorescence ratio: 1.01

Sequence: TGGGCCCAAC
- switch fluorescence ratio: 1.02

Sequence: TATTGCAGCT
- switch fluorescence ratio: 0.977

Sequence: GACTAATTTG
- switch fluorescence ratio: 1.02

Sequence: GAGCTGTAAA
- switch fluorescence ratio: 0.98

Sequence: TTAAAACCAG
- switch fluorescence ratio: 0.997

Sequence: CGTGATAGAA
- switch fluorescence ratio: 0.968

Sequence: ACCATCGGTA
- switch fluorescence ratio: 1.03

Sequence: GATATCCTAA
- switch fluorescence ratio: 1.03

Sequence: CTGGCAGAGG
- switch fluorescence ratio: 0.962

Sequence: TCCACGGGGG
- switch fluorescence ratio: 1.1

Sequence: CCAATTATCT
- switch fluorescence ratio: 1.01
